Results from the supplement of paper PMC3334620.
The full ranking holds about 33,000 sequences; the median of “E-score (-0.5 to 0.5)” is about -0.032, and the highest 2% start at about 0.36. This is one part of the list.

These sequences were tested against T1, Sko1 (UniProt Q02100) (assay: PBM E-score (8-mer binding enrichment) (E-score (-0.5 to 0.5)); higher = stronger / more preferred TF binding; most listed sequences are background and not binding sites). Conditions: protein concentration: 200 nM; construct: GST-full length.
T1 sequence: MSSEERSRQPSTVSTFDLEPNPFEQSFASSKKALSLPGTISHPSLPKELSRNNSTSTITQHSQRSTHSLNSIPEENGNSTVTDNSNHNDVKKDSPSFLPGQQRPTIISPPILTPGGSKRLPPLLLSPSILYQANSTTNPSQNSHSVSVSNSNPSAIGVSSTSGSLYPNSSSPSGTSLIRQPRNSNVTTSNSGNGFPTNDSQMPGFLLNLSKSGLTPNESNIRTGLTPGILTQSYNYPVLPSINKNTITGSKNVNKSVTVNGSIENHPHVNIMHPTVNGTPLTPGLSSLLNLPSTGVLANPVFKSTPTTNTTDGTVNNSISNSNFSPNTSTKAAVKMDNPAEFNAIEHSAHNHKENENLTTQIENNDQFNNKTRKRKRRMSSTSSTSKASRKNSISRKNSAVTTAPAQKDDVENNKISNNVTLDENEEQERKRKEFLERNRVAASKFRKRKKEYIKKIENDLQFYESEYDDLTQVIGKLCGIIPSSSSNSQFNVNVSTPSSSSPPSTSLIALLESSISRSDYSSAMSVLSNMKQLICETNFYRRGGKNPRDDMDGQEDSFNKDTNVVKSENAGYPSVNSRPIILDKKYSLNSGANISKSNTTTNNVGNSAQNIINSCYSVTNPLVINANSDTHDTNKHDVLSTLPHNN
Procedure, shortened: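 Using PURExpress in vitro transcription/translation, GST-tagged yeast transcription factors were made in full-length or DNA-binding-domain form. These were applied at about 100-200 nM to double-stranded universal all-10-mer Agilent arrays, and bound protein was detected with fluorescent anti-GST. Scans were normalised with masliner before the Universal PBM Analysis Suite assigned E-scores to ungapped eight-base words pooled with their reverse complements.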

| Sequence | PBM E-score |
| --- | --- |
| ACGTTAGG | 0.244 |
| GGTAGTCA | -0.123 |
| ATCACCAG | -0.148 |
| ACTGAAAA | 0.0792 |
| CGCGGATA | 0.00703 |
| CTTAGCTA | 0.0322 |
| ACGCCTCG | -0.0404 |
| CTTCTCTC | -0.0902 |
| GCGTTGTA | 0.057 |
| CCATGAAA | -0.171 |
| CTAGCCAC | -0.198 |
| ACGGATCT | -0.146 |
| GTATTCGA | -0.0882 |
| GTGGGCGA | 0.0113 |
| CCGGAGAC | -0.0548 |
| ACAGACCA | -0.115 |
| CAGAGGAC | -0.134 |
| ACTAGTAT | 0.19 |
| ATAGAACC | -0.246 |
| AGAAAACG | 0.251 |
| GGACTCCA | -0.157 |
| CCCCATGA | -0.0674 |
| CCATCAAG | -0.189 |
| ACCATCCA | -0.204 |

| Sequence | PBM E-score |
| --- | --- |
| CACGTATA | 0.431 |
| ATTAAGCG | 0.0319 |
| CCTGGGCA | -0.295 |
| CGTCCGGA | -0.109 |
| ACGTCTAT | 0.338 |
| AGCGTTCA | -0.139 |
| GGCAAACC | -0.231 |
| TAACCTCA | 0.157 |
| GCGGTGAA | -0.0294 |
| CATCGGAC | -0.104 |
| AAATCTGA | 0.157 |
| AGCTATGA | 0.209 |
| CATACCTC | -0.00759 |
| ACTCATCC | 0.0876 |
| AAACAGCC | -0.17 |
| GCTACGAA | 0.239 |
| ATGATTGG | 0.00474 |
| ATCAGGCA | -0.158 |
| ACCTCTCT | -0.189 |
| AGCCTGAC | -0.093 |
| GCATGTAA | 0.168 |
| CAATCTGG | -0.104 |
| TAGATCAA | 0.148 |
| CACATTAA | 0.0252 |

| Sequence | PBM E-score |
| --- | --- |
| AAAGTGAT | 0.171 |
| GACCCACC | -0.191 |
| AACGCTCC | -0.09 |
| GATACCCA | 0.143 |
| ACTAAAGC | 0.0851 |
| AAAGCGTA | -0.0108 |
| GCACGATA | 0.11 |
| AATTTCGT | 0.329 |
| AGATAAAA | 0.18 |
| GACACATA | 0.19 |
| AGGAACTC | -0.0596 |
| AGTAACGA | -0.0118 |
| AAGGTAGT | -0.172 |
| AACGCAGC | 0.0852 |
| CGCTTGAG | -0.196 |
| AAGCGACA | -0.083 |
| AGGTCCAT | 0.0213 |
| CACTCACA | -0.0872 |
| TCGCTAAA | 0.0984 |
| ACTGTTCA | -0.124 |
| CGATATCA | 0.107 |
| AATCGCCG | -0.15 |
| GCCGGTGA | -0.0673 |
| CACCGTCC | -0.334 |

| Sequence | PBM E-score |
| --- | --- |
| AGGCCGCA | -0.135 |
| ATTATATA | 0.234 |
| CCGACACA | -0.193 |
| ACCCCTCT | -0.252 |
| AGCTAGAG | -0.0748 |
| CGGCTTTC | -0.144 |
| ACTCCTTC | -0.213 |
| ACCGTGTG | -0.23 |
| GAGGTCTA | -0.0941 |
| CGCAATCC | 0.188 |
| AATTACTC | 0.215 |
| GTTAGGCA | -0.0724 |
| ACTGTCAG | -0.0657 |
| CGTTGGCA | -0.0554 |
| AACATCGT | 0.0175 |
| CTAGAGAC | -0.207 |
| GACCTCTC | -0.13 |
| CTCGGAAG | -0.221 |
| AACTACCG | 0.0336 |
| GATAAACC | 0.0912 |
| GGGGTTGA | -0.117 |
| ACATGTGC | 0.0169 |
